Assay results published in PMC4336329 (PLoS ONE, 2015).
Hit rate of the full screen: of about 310,000 compounds, about 14,000 (4.5%) showed an effect of 50% or more. The effect is printed as a negative number. The list shows a part of the results.

Molecular target: human ether-à-go-go-related gene (hERG) potassium channel (human, UniProt Q12809)
Assay: primary screen, population patch clamp on CHO cells stably expressing hERG
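Also: peak tail current of the secondary pulse compared with the same well before compound.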

human ether-à-go-go-related gene (hERG) potassium channel, sequence (Q12809 whole entry, looked up): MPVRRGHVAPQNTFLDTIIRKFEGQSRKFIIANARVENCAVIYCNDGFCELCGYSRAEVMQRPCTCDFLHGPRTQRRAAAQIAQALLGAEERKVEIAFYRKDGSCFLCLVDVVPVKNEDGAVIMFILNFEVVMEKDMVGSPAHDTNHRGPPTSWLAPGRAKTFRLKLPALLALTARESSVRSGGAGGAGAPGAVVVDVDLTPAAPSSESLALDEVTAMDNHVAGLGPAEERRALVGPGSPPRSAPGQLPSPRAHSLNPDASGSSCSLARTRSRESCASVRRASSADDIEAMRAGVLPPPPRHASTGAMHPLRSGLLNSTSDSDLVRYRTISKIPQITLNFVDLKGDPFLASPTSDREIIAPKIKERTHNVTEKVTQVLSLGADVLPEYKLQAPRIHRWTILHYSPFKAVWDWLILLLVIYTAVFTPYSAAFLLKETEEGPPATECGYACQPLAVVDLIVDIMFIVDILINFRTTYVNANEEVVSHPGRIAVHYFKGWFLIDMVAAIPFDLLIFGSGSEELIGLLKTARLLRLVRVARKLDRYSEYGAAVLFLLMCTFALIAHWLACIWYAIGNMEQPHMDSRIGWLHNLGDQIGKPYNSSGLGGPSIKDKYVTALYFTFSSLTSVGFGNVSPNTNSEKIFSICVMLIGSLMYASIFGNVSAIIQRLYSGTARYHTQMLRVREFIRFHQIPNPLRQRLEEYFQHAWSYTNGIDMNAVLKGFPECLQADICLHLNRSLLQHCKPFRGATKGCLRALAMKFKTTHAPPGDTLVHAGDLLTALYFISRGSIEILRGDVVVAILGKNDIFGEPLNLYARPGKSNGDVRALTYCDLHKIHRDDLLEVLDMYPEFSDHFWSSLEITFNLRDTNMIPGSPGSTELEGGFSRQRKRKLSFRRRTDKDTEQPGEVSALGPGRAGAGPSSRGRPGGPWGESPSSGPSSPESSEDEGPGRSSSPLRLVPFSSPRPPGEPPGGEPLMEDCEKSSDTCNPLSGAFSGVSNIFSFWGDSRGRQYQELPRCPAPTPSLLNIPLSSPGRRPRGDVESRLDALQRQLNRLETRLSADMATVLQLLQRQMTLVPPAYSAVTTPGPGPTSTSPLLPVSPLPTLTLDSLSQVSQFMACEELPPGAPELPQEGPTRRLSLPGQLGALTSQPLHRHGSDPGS

SMILES | hERG current change (%, negative = inhibition) at 10uM [%]
Cc1ccc(-n2ncc3c(=O)n(Cc4ccccn4)cnc32)cc1C | -3.05
N#CC1(NC(=O)CSc2nnc(Cc3ccccc3)o2)CCCCC1 | 1.11
COc1ccc(NC(=S)NCCCc2ccccc2)cc1 | -29.7
COc1ccc(-c2c[n+]3c4n2CCCCC4=C(c2ccc(Br)cc2)C3)cc1.[Br-] | -75.1
O=C1[C@@H]2C3C=CC(O3)[C@@H]2C(=O)N1c1ccccc1 | 11.6
CCOc1ccc(OCCOC(=O)CN(C)S(=O)(=O)c2ccc(NC(C)=O)cc2)cc1 | -16.8
O=S(=O)(NCC(c1ccc2c(c1)OCO2)N1CCN(c2ccccc2)CC1)c1ccccc1 (stereo not shown) | 5.41
CCOC(=O)c1c(-c2ccc(C)o2)csc1NC(=O)CSc1nnc(C)s1 | 6.97
CC12CC3CC(C)(C1)CC(C(=O)NCc1ccncc1)(C3)C2 | 9.2
CCOc1ccc(NC(=O)CSc2ccc(-c3cccnc3)nn2)cc1 | -5.55
O=C(c1ccc(NS(=O)(=O)c2ccc(F)cc2)cc1)N1CCC1 | 16.4
Cc1ccc2cc(CCNC(=O)c3cccc([N+](=O)[O-])c3)c(=O)[nH]c2c1C | -19.7
CCc1ccc(N2CC(C(=O)OCC(=O)Nc3ccc([N+](=O)[O-])cc3)CC2=O)cc1 (stereo not shown) | -36.9
CCCNC(=O)N1[C@H]2CC[C@@H]1C(C(=O)OC)=C(c1ccc(S(C)(=O)=O)cc1)C2 | 12.3
CC(C)OC(=O)C[N+](C)(C)CCN1C(=O)C2C(c3ccccc3)C=CC(c3ccccc3)C2C1=O.[Br-] (stereo not shown) | 18
CCn1c(=O)n(CC)c2cc(NC(=O)c3ccccc3Cl)ccc21 | 17.5
COc1ccc(CN2CCC(CO)(Cc3ccccc3C(F)(F)F)CC2)c(F)c1 | -67.3
Cc1cc(C(=O)Nc2ccccc2C(=O)O)oc1C | 14.6
Cc1ccc(/C=N/NC(=S)NC2CCCCC2)o1 | -4.48
CN(C)C1(c2nnnn2CCOC(=O)Nc2ccc(Cl)cc2)CCCCC1 | -24.2
Cc1cc(C)c(CN2CCC(n3nccc3NC(=O)C3CCOC3)CC2)cc1C (stereo not shown) | -19
Cc1c(NC(=S)NC(NC(=O)C(C)(C)C)C(Cl)(Cl)Cl)c(=O)n(-c2ccccc2)n1C (stereo not shown) | -2.16

SMILES | hERG current change (%, negative = inhibition) at 10uM [%]
Cc1cccc(NC(=S)NNC(=O)c2sccc2C)c1 | 12.4
CCn1c(SCC(=O)NC2CC2)nnc1-c1ccncc1 | 14.8
Cc1ccccc1N1CCN(CCCN2C(=O)C3CCCCN3C2=O)CC1 (stereo not shown) | -9.54
CC(C)(C)NC(=O)C(=O)NNC(=O)c1ccco1 | 18.1
CC1CCN(CC(=O)Nc2nc(-c3ccccc3)cs2)CC1 | -9.09
CN(Cc1cn[nH]c1-c1ccc(-c2ccccc2)cc1)CC1CCOCC1 | -46.2
COc1cc2c(cc1OC)C(C)N(C(=O)Cn1ncc3c1-c1cc(C)ccc1OC3)CC2 (stereo not shown) | -35.7
NC(=O)CCSC(=S)N1CCOCC1 | 4.26
COc1cc(C2C3=C(CC(C)(C)CC3=O)N(C)C3=C2C(=O)CC(C)(C)C3)ccc1O | 8.85
CCn1c2ccccc2c2cc(NC(=O)CSc3nnc(-c4cccc(OC)c4)n3N)ccc21 | -14.6
Cc1cc(C)c2cc(CN(Cc3ccco3)C(=S)NCC3CCCO3)c(=O)[nH]c2c1 (stereo not shown) | -14.8
O=C(Cn1cc(C(F)(F)F)ccc1=O)N/N=C/c1ccccc1 | 33.6
O=C(NCCO)c1ccc(-c2nnc(Nc3ccc(O)cc3)c3ccccc23)cc1 | 16.8
Cc1cccc(OCc2nnc(SCC(=O)c3ccccc3)o2)c1 | 2.71
Cc1ccc(C)c(S(=O)(=O)N2CCN(C(=O)Cc3ccc(S(=O)(=O)N4CCOCC4)s3)CC2)c1 | -0.423
COc1cccc(NC(=O)CCCn2nc(C)c3c(C)n(-c4ccccc4)nc3c2=O)c1 | 0.596
O=c1c2cc(NC(=S)NC3CCN(Cc4ccccc4)CC3)ccc2nc2n1CCCCC2 | -10.4
CN1CCN(C(=O)/C(C#N)=C/c2ccc(F)cc2)CC1.Cl | 6.63
Cc1nnc(NC2CCCCC2)[nH]c1=O | 13.4
Cc1ccc(NC(=S)Nc2cccc(S(=O)(=O)Nc3c(C)n(C)n(-c4ccccc4)c3=O)c2)cc1 | 15.3
Cc1cc(Br)ccc1SCC(=O)NCC(c1ccco1)N1CCCCC1 (stereo not shown) | -40
